{"source": "paper PMC4336329", "about": "(PLoS ONE, 2015)", "note": "Hit rate of the full screen: of about 310,000 compounds, about 2,200 (0.71%) showed an effect of 50% or more. The effect is printed as a negative number. The list shows a part of the results.", "data": [{"target": "human ether-à-go-go-related gene (hERG) potassium channel (human, UniProt Q12809)", "sequence (Q12809 whole entry, looked up)": "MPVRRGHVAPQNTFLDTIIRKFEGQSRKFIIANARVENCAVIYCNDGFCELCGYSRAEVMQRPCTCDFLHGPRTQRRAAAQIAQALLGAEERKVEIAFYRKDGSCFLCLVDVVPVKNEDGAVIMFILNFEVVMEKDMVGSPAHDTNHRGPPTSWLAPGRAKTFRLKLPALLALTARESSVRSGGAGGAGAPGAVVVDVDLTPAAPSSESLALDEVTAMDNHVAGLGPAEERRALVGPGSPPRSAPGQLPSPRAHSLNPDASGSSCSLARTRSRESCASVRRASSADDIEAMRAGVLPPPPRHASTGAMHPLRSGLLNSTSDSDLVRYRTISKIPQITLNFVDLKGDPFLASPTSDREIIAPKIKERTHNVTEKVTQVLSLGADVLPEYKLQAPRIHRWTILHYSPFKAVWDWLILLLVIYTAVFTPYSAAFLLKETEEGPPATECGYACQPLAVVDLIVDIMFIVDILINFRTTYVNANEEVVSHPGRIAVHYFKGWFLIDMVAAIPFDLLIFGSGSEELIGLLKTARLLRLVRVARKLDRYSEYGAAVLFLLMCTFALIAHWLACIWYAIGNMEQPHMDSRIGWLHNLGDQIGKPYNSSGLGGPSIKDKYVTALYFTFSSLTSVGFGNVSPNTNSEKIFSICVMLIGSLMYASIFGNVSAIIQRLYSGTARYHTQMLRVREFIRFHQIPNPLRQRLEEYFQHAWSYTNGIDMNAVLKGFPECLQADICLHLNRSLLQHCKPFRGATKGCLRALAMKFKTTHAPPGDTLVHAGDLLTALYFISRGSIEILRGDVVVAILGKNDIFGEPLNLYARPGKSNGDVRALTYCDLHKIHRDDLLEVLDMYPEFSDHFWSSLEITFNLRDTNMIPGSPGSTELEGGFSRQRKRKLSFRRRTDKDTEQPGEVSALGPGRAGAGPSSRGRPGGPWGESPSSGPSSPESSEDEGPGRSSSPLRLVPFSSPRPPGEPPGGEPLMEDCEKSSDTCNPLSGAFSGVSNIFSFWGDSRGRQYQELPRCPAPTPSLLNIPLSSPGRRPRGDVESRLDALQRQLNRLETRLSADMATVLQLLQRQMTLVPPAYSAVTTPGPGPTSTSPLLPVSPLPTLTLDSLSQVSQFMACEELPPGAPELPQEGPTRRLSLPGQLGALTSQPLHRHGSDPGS", "test": "primary screen, population patch clamp on CHO cells stably expressing hERG", "units": {"hERG current change (%, negative = inhibition) at 1uM": "%"}, "values": [{"compound": "Nc1c(C(=O)NCCc2ccc(Cl)cc2)sc2ccc(S(=O)(=O)N3CCCCC3)cc12", "hERG current change (%, negative = inhibition) at 1uM": 7.2}, {"compound": "O=C(NC1CC2CCCC(C1)N2C(=O)Nc1ccccc1Cl)C1CC1", "note": "(stereo not drawn)", "hERG current change (%, negative = inhibition) at 1uM": 16.6}, {"compound": "CC(=O)c1cc(N2CCC(C(=O)O)CC2)ccc1[N+](=O)[O-]", "hERG current change (%, negative = inhibition) at 1uM": 11.9}, {"compound": "CCOC(=O)c1c2n(c3ccc(OC(C)=O)cc13)CCC2", "hERG current change (%, negative = inhibition) at 1uM": 7.87}, {"compound": "COc1ccc(S(=O)(=O)Nc2ccc(F)cc2)cc1N(C)S(=O)(=O)c1ccc(Cl)cc1", "hERG current change (%, negative = inhibition) at 1uM": 13.3}, {"compound": "COc1ccc(NC(=O)c2cc(C3CC3)nc3c2cnn3C(C)C)cc1OC", "hERG current change (%, negative = inhibition) at 1uM": 2.09}, {"compound": "CCOC(=O)C1(Cc2ccc(OC)cc2)CCN(C(=O)CC2CCC(=O)N2)CC1", "note": "(stereo not drawn)", "hERG current change (%, negative = inhibition) at 1uM": 15.5}, {"compound": "Cc1ccc(-c2cc(C(=O)NCc3ccco3)no2)cc1", "hERG current change (%, negative = inhibition) at 1uM": 14.4}, {"compound": "COc1cc2c(cc1OC)[C@@H]1Cc3ccc(OC)c(OC)c3CN1CC2.Cl", "hERG current change (%, negative = inhibition) at 1uM": 10.9}, {"compound": "Cl.O=c1c2[nH]c3ccc(F)cc3c2ncn1C1CCCCC1", "hERG current change (%, negative = inhibition) at 1uM": 14.9}, {"compound": "O=C(Nc1ccccc1C(=O)O)c1cccc(F)c1", "hERG current change (%, negative = inhibition) at 1uM": 10.3}, {"compound": "CCCC(c1nnnn1C(C)(C)CC)N(CCCO)Cc1cc2cc(C)cc(C)c2[nH]c1=O", "note": "(stereo not drawn)", "hERG current change (%, negative = inhibition) at 1uM": 1.35}, {"compound": "Cc1oc(-c2cc(F)ccc2F)nc1CN1CCN(C)C(=O)[C@@H]1C", "hERG current change (%, negative = inhibition) at 1uM": 7.77}, {"compound": "COc1ccc(C(CNC(=O)CNS(=O)(=O)c2ccc(NC(C)=O)cc2)N2CCOCC2)cc1", "note": "(stereo not drawn)", "hERG current change (%, negative = inhibition) at 1uM": 9.53}, {"compound": "CCOC(=O)Cc1nn(Cc2ccc(Cl)cc2)c(=O)c2ccccc12", "hERG current change (%, negative = inhibition) at 1uM": 12.6}, {"compound": "O=S(=O)(NCc1ccccn1)c1cc(Cl)ccc1Cl", "hERG current change (%, negative = inhibition) at 1uM": 12.5}, {"compound": "CCc1ccc(C(=O)CN2C(=O)NC(C)(c3ccc(C)cc3)C2=O)cc1", "note": "(stereo not drawn)", "hERG current change (%, negative = inhibition) at 1uM": 11.6}, {"compound": "CC(C)Cc1cc(C(=O)Nc2cccnc2)no1", "hERG current change (%, negative = inhibition) at 1uM": 4.88}, {"compound": "O=C(/C=C/c1ccccc1F)c1ccoc1", "hERG current change (%, negative = inhibition) at 1uM": 3.53}, {"compound": "COc1ccc(N(Cc2cc(=O)[nH]c3ccccc23)C(=O)c2ccco2)cc1", "hERG current change (%, negative = inhibition) at 1uM": 8.05}, {"compound": "CC(C)(C)c1ccc(C(=O)c2c[nH]c(C(=O)NCc3cccs3)c2)cc1", "hERG current change (%, negative = inhibition) at 1uM": 18.6}, {"compound": "CC(C)(C)C(=O)C(Oc1cccc2nonc12)n1cncn1", "note": "(stereo not drawn)", "hERG current change (%, negative = inhibition) at 1uM": 0.757}, {"compound": "CC1CCC(NC(=O)c2cc3c(=O)n(C)c4ccccc4c3n2C)CC1", "note": "(stereo not drawn)", "hERG current change (%, negative = inhibition) at 1uM": 3.84}, {"compound": "CCN(CC)CCCNC(=O)c1ccc2c(Cl)c3c(nc2c1)CCCC3", "hERG current change (%, negative = inhibition) at 1uM": -10.9}, {"compound": "O=C(c1ccc(Cl)cc1)c1cc([N+](=O)[O-])ccc1N1CCOCC1", "hERG current change (%, negative = inhibition) at 1uM": 10.3}, {"compound": "O=C(c1ccccc1)c1cccc(NC(=O)c2ccc(Br)o2)c1", "hERG current change (%, negative = inhibition) at 1uM": -9.49}, {"compound": "O=C(CNC(=O)c1ccc(Br)cc1)NCC(=O)OCC(=O)c1ccccc1", "hERG current change (%, negative = inhibition) at 1uM": 9.69}, {"compound": "COc1ccc(Sc2nc(-c3ccccc3)ncc2OC)cc1", "hERG current change (%, negative = inhibition) at 1uM": 13.3}, {"compound": "Cc1cc(C(=O)NNC(=O)c2cccs2)c(C)o1", "hERG current change (%, negative = inhibition) at 1uM": 5.64}, {"compound": "CCOc1ccc(NC(=S)NN2CCN(C)CC2)cc1", "hERG current change (%, negative = inhibition) at 1uM": 12.2}, {"compound": "c1ccc(N2CCOCC2)c(Nc2nc3ccccc3n3cnnc23)c1", "hERG current change (%, negative = inhibition) at 1uM": 9.55}, {"compound": "Cc1ccc(Cl)cc1NC(=O)c1ccccc1OCC(=O)N1CCOCC1", "hERG current change (%, negative = inhibition) at 1uM": -12}, {"compound": "Cc1ccc(N=CC2=C(O)CC(c3cccc(Cl)c3)CC2=O)cc1", "note": "(stereo not drawn)", "hERG current change (%, negative = inhibition) at 1uM": 7.47}, {"compound": "COc1ccccc1CCC(=O)Nc1nccs1", "hERG current change (%, negative = inhibition) at 1uM": 15.3}, {"compound": "Cc1ccc(S(=O)(=O)N2CCOCC2)cc1C(=O)c1nccn1C", "hERG current change (%, negative = inhibition) at 1uM": 12.4}, {"compound": "CCSc1nnc2ccc(-c3ccco3)nn12", "hERG current change (%, negative = inhibition) at 1uM": 10.3}, {"compound": "CC(C)N(Cc1cc2ccccc2[nH]c1=O)C(=O)c1ccco1", "hERG current change (%, negative = inhibition) at 1uM": 11.1}, {"compound": "O=C(CCc1nc2ccccc2c(=O)[nH]1)NNC(=O)COc1ccccc1Cl", "hERG current change (%, negative = inhibition) at 1uM": 10.4}, {"compound": "Cn1c(=O)c2c(ncn2CC(=O)OCC(=O)c2ccc(Cl)cc2)n(C)c1=O", "hERG current change (%, negative = inhibition) at 1uM": 5.54}, {"compound": "Cc1ccc(S(=O)(=O)N2CCC(CN3C(=O)c4cccc5cccc(c45)C3=O)CC2)cc1", "hERG current change (%, negative = inhibition) at 1uM": 12.6}, {"compound": "Cc1sc2nc(SCC(=O)NCCOCCO)nc(N)c2c1C", "hERG current change (%, negative = inhibition) at 1uM": 17}, {"compound": "O=C(c1ccco1)N1CCN(c2nnc(-c3ccccc3)c3ccccc23)CC1", "hERG current change (%, negative = inhibition) at 1uM": -45.8}, {"compound": "Cc1ccc(Cl)cc1N1CCN(C(=O)CSc2nnc3n2C(C)(C)Cc2ccccc2-3)CC1", "hERG current change (%, negative = inhibition) at 1uM": -26.5}, {"compound": "Cc1cccc(CSc2nnc(-c3cnccn3)n2C)c1", "hERG current change (%, negative = inhibition) at 1uM": 8.29}, {"compound": "COc1ccc(-c2ccc(C#N)c(SCC(=O)Nc3sc4c(c3C#N)CCC4)n2)cc1", "hERG current change (%, negative = inhibition) at 1uM": 13.6}]}]}
